For part of its entries the source gives two or more results. This is not the full list of results. An entry can have further records. Some entries list several cross-links; each record is another pair of residues.
Molecular target: C2orf49 (UniProt Q9BVC5)
Assay: cross-linking mass spectrometry
Details: DSS, purified complex

Sequence of DDX1 (Q92499 whole entry): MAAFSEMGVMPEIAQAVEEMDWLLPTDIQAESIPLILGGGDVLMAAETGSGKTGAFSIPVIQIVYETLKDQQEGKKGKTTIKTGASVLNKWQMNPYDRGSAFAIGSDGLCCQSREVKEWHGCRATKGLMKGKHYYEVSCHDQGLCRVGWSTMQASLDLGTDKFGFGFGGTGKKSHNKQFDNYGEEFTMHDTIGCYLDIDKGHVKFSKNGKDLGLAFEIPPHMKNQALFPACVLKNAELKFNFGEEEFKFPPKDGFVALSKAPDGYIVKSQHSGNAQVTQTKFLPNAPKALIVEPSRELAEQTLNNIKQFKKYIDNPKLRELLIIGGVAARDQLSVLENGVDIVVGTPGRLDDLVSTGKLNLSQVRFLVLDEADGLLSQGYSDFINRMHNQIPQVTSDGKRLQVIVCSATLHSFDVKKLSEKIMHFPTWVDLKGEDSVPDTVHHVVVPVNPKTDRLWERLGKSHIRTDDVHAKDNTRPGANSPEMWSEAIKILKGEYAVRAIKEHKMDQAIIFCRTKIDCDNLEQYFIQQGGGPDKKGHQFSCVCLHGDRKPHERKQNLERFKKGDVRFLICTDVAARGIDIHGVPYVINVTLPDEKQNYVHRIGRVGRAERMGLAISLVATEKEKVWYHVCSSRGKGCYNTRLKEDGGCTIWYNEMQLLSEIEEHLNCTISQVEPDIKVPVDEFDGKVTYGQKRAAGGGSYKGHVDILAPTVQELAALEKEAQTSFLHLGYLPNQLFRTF
Sequence of FAM98B (Q52LJ0 whole entry): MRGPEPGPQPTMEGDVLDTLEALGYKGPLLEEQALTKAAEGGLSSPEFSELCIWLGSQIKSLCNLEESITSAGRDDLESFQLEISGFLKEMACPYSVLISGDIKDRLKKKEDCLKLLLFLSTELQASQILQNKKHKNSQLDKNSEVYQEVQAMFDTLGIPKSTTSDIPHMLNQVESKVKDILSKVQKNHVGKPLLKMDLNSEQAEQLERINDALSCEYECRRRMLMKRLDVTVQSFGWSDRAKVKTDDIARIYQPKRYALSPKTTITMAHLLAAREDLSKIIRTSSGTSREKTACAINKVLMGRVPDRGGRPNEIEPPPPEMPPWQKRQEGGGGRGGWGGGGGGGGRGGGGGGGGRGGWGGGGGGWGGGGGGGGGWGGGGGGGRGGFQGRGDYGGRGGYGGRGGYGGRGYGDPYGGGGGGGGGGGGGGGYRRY
Sequence of UniProt Q9BVC5 (Q9BVC5 whole entry): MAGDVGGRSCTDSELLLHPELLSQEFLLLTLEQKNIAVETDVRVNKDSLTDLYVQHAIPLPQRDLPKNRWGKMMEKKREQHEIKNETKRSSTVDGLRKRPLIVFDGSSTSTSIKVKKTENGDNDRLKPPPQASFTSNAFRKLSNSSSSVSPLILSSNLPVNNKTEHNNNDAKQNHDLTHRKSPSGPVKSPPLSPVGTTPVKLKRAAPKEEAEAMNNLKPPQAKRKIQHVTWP

| Substance | cross-linked residues |
| --- | --- |
| FAM98B, Q52LJ0 | K245 - K84 and K245 - K98 and K245 - K127 and K256 - K46 and K256 - K98 and K256 - K127 |
| DDX1, Q92499 | K358 - K127 and K472 - K98 and K472 - K127 and K472 - K225 |

From PMC8668186, “Molecular architecture of the human tRNA ligase complex” (eLife, 2021)
